This passage reports enrichment score results from the supplement of paper PMC10369915.

Some of the results follow. No stated cut-off is given here; in the data, active = 3.2 or more and inactive = the rest. Most of these values are background signal.
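Further: displayed peptides selected on beads carrying the immobilized SH2 domain, with library peptides lacking any tyrosine serving as negative controls.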

The first test addresses SHP2 C-SH2 domain E139D. Kind of test: enrichment score (SH2-bound / input frequency) (ratio); bacterial display of known human phosphotyrosine sites (pTyr-Var adds point mutants) read by sequencing; higher = stronger binding; tyrosines were phosphorylated by kinases first. Particulars: peptide library: pTyr-Var.
Take PLDGEHFTLQI [TP53_Y327_Y327H]: the enrichment score is inactive: 0.893.

Consider CTTIHYFFMCN [TP53_Y234_N235Y_YF], for which the enrichment score was inactive: 1.38.

For CTSIHYNYMCN [TP53_Y234_T231S], the enrichment score was active: 3.59.

On to CTTIHYNYMSN [TP53_Y234_C238S], for which the enrichment score is inactive: 1.33.

For the molecule NTTIHYNFMCN [TP53_Y234_C229N_YF], the enrichment score is inactive: 0.776.

Take PLDGESFTLQI [TP53_Y327_Y327S]: the enrichment score is inactive: 0.689.

Consider PLDGEYFTRQI [TP53_Y327_L330R], for which the enrichment score is inactive: 0.806.

In the case of CTTIFYNFMCN [TP53_Y234_H233Y_YF], the enrichment score is active: 3.88.

In the case of CTTIHYNYMHN [TP53_Y234_C238H], the enrichment score was inactive: 1.72.

On to CTTIHCNYMCN [TP53_Y234_Y234C], for which the enrichment score was inactive: 1.89.

Consider CTTLHYNYMCN [TP53_Y234_I232L], for which the enrichment score was active: 4.21.

PGDGEYFTLQI [TP53_Y327_L323G]: the enrichment score is inactive: 0.722.

For the molecule STTIHYNYMCN [TP53_Y234_C229S], the enrichment score is inactive: 0.823.

Consider CTTIHYNFMCK [TP53_Y234_N239K_YF], for which the enrichment score was active: 4.66.

For FTTIHYNFMCN [TP53_Y234_C229Y_YF], the enrichment score was inactive: 2.05.

Consider EADRKYEEVAR [TPM3_Y163], for which the enrichment score is inactive: 0.543.

For the molecule CTTFHYNFMCN [TP53_Y234_I232F_YF], the enrichment score is active: 3.28.

On to CTTIHYNYMCN [TP53_Y234], for which the enrichment score was active: 5.36.

Consider AAQNCYKVTNA [TPI1_Y105_G110A], for which the enrichment score is inactive: 0.636.

In another test the target is SHP2 C-SH2 domain wild-type. The description is as above. Conditions: peptide library: pTyr-Var.
On to PLDGEHFTLQI [TP53_Y327_Y327H], for which the enrichment score was inactive: 1.04.

For the molecule CTTIHYFFMCN [TP53_Y234_N235Y_YF], the enrichment score was inactive: 1.4.

Consider CTSIHYNYMCN [TP53_Y234_T231S], for which the enrichment score was active: 4.93.

Consider CTTIHYNYMSN [TP53_Y234_C238S], for which the enrichment score is inactive: 1.46.

As for NTTIHYNFMCN [TP53_Y234_C229N_YF], the enrichment score is inactive: 1.

For PLDGESFTLQI [TP53_Y327_Y327S], the enrichment score is inactive: 0.926.

Turning to PLDGEYFTRQI [TP53_Y327_L330R], the enrichment score was inactive: 0.829.

With CTTIFYNFMCN [TP53_Y234_H233Y_YF], the enrichment score was active: 3.63.

With CTTIHYNYMHN [TP53_Y234_C238H], the enrichment score was inactive: 2.

As for CTTIHCNYMCN [TP53_Y234_Y234C], the enrichment score was inactive: 2.25.

With CTTLHYNYMCN [TP53_Y234_I232L], the enrichment score was active: 5.14.

Take PGDGEYFTLQI [TP53_Y327_L323G]: the enrichment score was inactive: 0.551.

Take STTIHYNYMCN [TP53_Y234_C229S]: the enrichment score is inactive: 1.05.

Turning to CTTIHYNFMCK [TP53_Y234_N239K_YF], the enrichment score is active: 3.8.

Take FTTIHYNFMCN [TP53_Y234_C229Y_YF]: the enrichment score is inactive: 2.39.

For the molecule EADRKYEEVAR [TPM3_Y163], the enrichment score was inactive: 0.477.

For CTTFHYNFMCN [TP53_Y234_I232F_YF], the enrichment score was inactive: 2.44.

For the molecule CTTIHYNYMCN [TP53_Y234], the enrichment score was active: 6.27.

As to AAQNCYKVTNA [TPI1_Y105_G110A], the enrichment score was inactive: 0.598.

For a further test, the target named is SHP2 N-SH2 domain L43F. Described as above. Conditions: peptide library: pTyr-Var.
Consider PLDGEHFTLQI [TP53_Y327_Y327H], for which the enrichment score is inactive: 0.716.

For CTTIHYFFMCN [TP53_Y234_N235Y_YF], the enrichment score was inactive: 1.31.

For CTSIHYNYMCN [TP53_Y234_T231S], the enrichment score was inactive: 2.59.

Consider CTTIHYNYMSN [TP53_Y234_C238S], for which the enrichment score was inactive: 1.71.

Turning to NTTIHYNFMCN [TP53_Y234_C229N_YF], the enrichment score is inactive: 0.834.

For the molecule PLDGESFTLQI [TP53_Y327_Y327S], the enrichment score is inactive: 0.761.

On to PLDGEYFTRQI [TP53_Y327_L330R], for which the enrichment score was inactive: 1.13.

Consider CTTIFYNFMCN [TP53_Y234_H233Y_YF], for which the enrichment score is active: 3.9.

With CTTIHYNYMHN [TP53_Y234_C238H], the enrichment score is inactive: 1.43.

As to CTTIHCNYMCN [TP53_Y234_Y234C], the enrichment score was inactive: 2.13.

As for CTTLHYNYMCN [TP53_Y234_I232L], the enrichment score is active: 3.28.

Take PGDGEYFTLQI [TP53_Y327_L323G]: the enrichment score was inactive: 0.425.

In the case of STTIHYNYMCN [TP53_Y234_C229S], the enrichment score was inactive: 0.801.

In the case of CTTIHYNFMCK [TP53_Y234_N239K_YF], the enrichment score is active: 3.95.

As to FTTIHYNFMCN [TP53_Y234_C229Y_YF], the enrichment score is inactive: 2.24.

Take EADRKYEEVAR [TPM3_Y163]: the enrichment score was inactive: 0.567.

As for CTTFHYNFMCN [TP53_Y234_I232F_YF], the enrichment score is inactive: 3.14.

In the case of CTTIHYNYMCN [TP53_Y234], the enrichment score is active: 4.05.

Consider AAQNCYKVTNA [TPI1_Y105_G110A], for which the enrichment score was inactive: 0.554.

In the next test the target is SHP2 N-SH2 domain T42A. The test is described as above. Conditions: peptide library: pTyr-Var.
Consider PLDGEHFTLQI [TP53_Y327_Y327H], for which the enrichment score is inactive: 0.746.

With CTTIHYFFMCN [TP53_Y234_N235Y_YF], the enrichment score was inactive: 1.24.

CTSIHYNYMCN [TP53_Y234_T231S]: the enrichment score is inactive: 2.46.

Take CTTIHYNYMSN [TP53_Y234_C238S]: the enrichment score is inactive: 1.12.

On to NTTIHYNFMCN [TP53_Y234_C229N_YF], for which the enrichment score is inactive: 0.895.

PLDGESFTLQI [TP53_Y327_Y327S]: the enrichment score was inactive: 0.723.

For the molecule PLDGEYFTRQI [TP53_Y327_L330R], the enrichment score is inactive: 1.05.

For the molecule CTTIFYNFMCN [TP53_Y234_H233Y_YF], the enrichment score is inactive: 2.43.

Turning to CTTIHYNYMHN [TP53_Y234_C238H], the enrichment score is inactive: 1.07.

In the case of CTTIHCNYMCN [TP53_Y234_Y234C], the enrichment score was inactive: 1.91.

With CTTLHYNYMCN [TP53_Y234_I232L], the enrichment score was inactive: 2.65.

Consider PGDGEYFTLQI [TP53_Y327_L323G], for which the enrichment score is inactive: 0.404.

As for STTIHYNYMCN [TP53_Y234_C229S], the enrichment score is inactive: 0.944.

Turning to CTTIHYNFMCK [TP53_Y234_N239K_YF], the enrichment score was inactive: 2.94.

Turning to FTTIHYNFMCN [TP53_Y234_C229Y_YF], the enrichment score is inactive: 2.2.

As for EADRKYEEVAR [TPM3_Y163], the enrichment score was inactive: 0.522.

CTTFHYNFMCN [TP53_Y234_I232F_YF]: the enrichment score was inactive: 2.67.

On to CTTIHYNYMCN [TP53_Y234], for which the enrichment score was active: 3.63.

Turning to AAQNCYKVTNA [TPI1_Y105_G110A], the enrichment score is inactive: 0.571.

The target of another test is SHP2 N-SH2 domain T52S. The description is as above. Conditions: peptide library: pTyr-Var.
For the molecule PLDGEHFTLQI [TP53_Y327_Y327H], the enrichment score was inactive: 0.635.

Turning to CTTIHYFFMCN [TP53_Y234_N235Y_YF], the enrichment score is inactive: 1.42.

For the molecule CTSIHYNYMCN [TP53_Y234_T231S], the enrichment score is inactive: 2.9.

On to CTTIHYNYMSN [TP53_Y234_C238S], for which the enrichment score was inactive: 1.56.

Regarding NTTIHYNFMCN [TP53_Y234_C229N_YF], the enrichment score was inactive: 0.754.

With PLDGESFTLQI [TP53_Y327_Y327S], the enrichment score was inactive: 0.873.

On to PLDGEYFTRQI [TP53_Y327_L330R], for which the enrichment score is inactive: 0.848.

Regarding CTTIFYNFMCN [TP53_Y234_H233Y_YF], the enrichment score was active: 3.23.

In the case of CTTIHYNYMHN [TP53_Y234_C238H], the enrichment score is inactive: 1.5.

With CTTIHCNYMCN [TP53_Y234_Y234C], the enrichment score is inactive: 1.96.

Turning to CTTLHYNYMCN [TP53_Y234_I232L], the enrichment score is inactive: 3.18.

As for PGDGEYFTLQI [TP53_Y327_L323G], the enrichment score is inactive: 0.586.

For STTIHYNYMCN [TP53_Y234_C229S], the enrichment score was inactive: 0.912.

For CTTIHYNFMCK [TP53_Y234_N239K_YF], the enrichment score was active: 3.88.

Turning to FTTIHYNFMCN [TP53_Y234_C229Y_YF], the enrichment score is inactive: 1.88.

Take EADRKYEEVAR [TPM3_Y163]: the enrichment score was inactive: 0.442.

Regarding CTTFHYNFMCN [TP53_Y234_I232F_YF], the enrichment score is inactive: 2.54.

Turning to CTTIHYNYMCN [TP53_Y234], the enrichment score was active: 4.26.

AAQNCYKVTNA [TPI1_Y105_G110A]: the enrichment score was inactive: 0.488.

The target of the next test is SHP2 N-SH2 domain wild-type. Described as above. Conditions: peptide library: pTyr-Var.
Consider PLDGEHFTLQI [TP53_Y327_Y327H], for which the enrichment score was inactive: 0.944.

With CTTIHYFFMCN [TP53_Y234_N235Y_YF], the enrichment score is inactive: 1.47.

CTSIHYNYMCN [TP53_Y234_T231S]: the enrichment score was inactive: 2.66.

Turning to CTTIHYNYMSN [TP53_Y234_C238S], the enrichment score was inactive: 1.2.

Consider NTTIHYNFMCN [TP53_Y234_C229N_YF], for which the enrichment score was inactive: 1.02.

As to PLDGESFTLQI [TP53_Y327_Y327S], the enrichment score is inactive: 1.15.

With PLDGEYFTRQI [TP53_Y327_L330R], the enrichment score was inactive: 1.29.

Take CTTIFYNFMCN [TP53_Y234_H233Y_YF]: the enrichment score was active: 3.48.

Take CTTIHYNYMHN [TP53_Y234_C238H]: the enrichment score is inactive: 1.75.

Consider CTTIHCNYMCN [TP53_Y234_Y234C], for which the enrichment score was inactive: 2.17.

Consider CTTLHYNYMCN [TP53_Y234_I232L], for which the enrichment score was inactive: 2.98.

Turning to PGDGEYFTLQI [TP53_Y327_L323G], the enrichment score is inactive: 0.809.

On to STTIHYNYMCN [TP53_Y234_C229S], for which the enrichment score is inactive: 0.975.

For the molecule CTTIHYNFMCK [TP53_Y234_N239K_YF], the enrichment score is active: 3.71.

With FTTIHYNFMCN [TP53_Y234_C229Y_YF], the enrichment score is inactive: 2.31.

Take EADRKYEEVAR [TPM3_Y163]: the enrichment score is inactive: 0.537.

CTTFHYNFMCN [TP53_Y234_I232F_YF]: the enrichment score is inactive: 2.57.

Take CTTIHYNYMCN [TP53_Y234]: the enrichment score was active: 3.25.

In the case of AAQNCYKVTNA [TPI1_Y105_G110A], the enrichment score was inactive: 0.758.
